According to the supplement of paper PMC12578646, “Prodrug florfenicol amine is activated by intrinsic resistance to target Mycobacterium abscessus” (Nature Microbiology, 2025):

Experiments:
Test in all cases: growth relative to untreated wells; higher = more growth (less inhibition)
[1] = tested on: Mycobacterium abscessus ATCC 19977 WhiB7 T70fs
Method: (§1)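 384-well two-fold dose series, two replicates; 5 days at 37 °C, then 24 h with resazurin; fluorescence scaled to growth and killed controls.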

[2] = tested on: Mycobacterium abscessus ATCC 19977
Method: as §1

[3] = tested on: Mycobacterium abscessus ATCC 19977 Δeis2
Method: as §1

[4] = tested on: Mycobacterium abscessus ATCC 19977 Eis2 Y227D
Method: as §1

[5] = tested on: Mycobacterium abscessus ATCC 19977 ΔwhiB7
Method: as §1

[6] = tested on: Mycobacterium abscessus ATCC 19977 WhiB7 L37P
Method: as §1

[7] = tested on: Mycobacterium abscessus ATCC 19977 Eis2 T258R
Method: as §1

[8] = tested on: Mycobacterium abscessus ATCC 19977 Eis2 Y284*
Method: as §1

[9] = tested on: Mycobacterium abscessus ATCC 19977 Eis2 E120fs
Method: as §1

[10] = tested on: Mycobacterium abscessus ATCC 19977 WhiB7 F24fs
Method: as §1

[11] = tested on: Mycobacterium abscessus ATCC 19977 WhiB7 R76del
Method: as §1

[12] = tested on: Mycobacterium abscessus ATCC 19977 Eis2 Y255*
Method: as §1

NC[C@H]1O[C@H](O[C@H]2[C@H](O)[C@@H](O[C@H]3O[C@H](CO)[C@@H](O)[C@H](N)[C@H]3O)[C@H](N)C[C@@H]2N)[C@H](O)[C@@H](O)[C@@H]1O [kanamycin A]
Conditions | growth [%]
[1], 0.03125 µg/mL | 108 ± 3.1
[1], 0.0625 µg/mL | 123 ± 5.2
[1], 0.125 µg/mL | 117 ± 5.5
[1], 0.25 µg/mL | 128 ± 2.5
[1], 0.5 µg/mL | -1.94 ± 0.74
[1], 1 µg/mL | -2.85 ± 0.69
[1], 2 µg/mL | -3.45 ± 1.5
[1], 4 µg/mL | -3.53 ± 0.88
[1], 8 µg/mL | -3.39 ± 1
[1], 16 µg/mL | -2.95 ± 0.75
[1], 32 µg/mL | -2.32 ± 0.92
[1], 64 µg/mL | -1.52 ± 1.2
[2], 0.03125 µg/mL | 113 ± 3.3
[2], 0.0625 µg/mL | 122 ± 2.1
[2], 0.125 µg/mL | 122 ± 1.8
[2], 0.25 µg/mL | 131 ± 1.9
[2], 0.5 µg/mL | 129 ± 6.2
[2], 1 µg/mL | 26.2 ± 29
[2], 2 µg/mL | -0.192 ± 1
[2], 4 µg/mL | 5.65 ± 7.3
[2], 8 µg/mL | 3.17 ± 4.9
[2], 16 µg/mL | -0.433 ± 1.1
[2], 32 µg/mL | -0.0013 ± 0.84
[2], 64 µg/mL | 1.13 ± 0.59
[3], 0.03125 µg/mL | 107 ± 2.6
[3], 0.0625 µg/mL | 113 ± 3.1
[3], 0.125 µg/mL | 115 ± 2.2
[3], 0.25 µg/mL | 136 ± 4.3
[3], 0.5 µg/mL | 5.28 ± 3.7
[3], 1 µg/mL | -0.606 ± 0.38
[3], 2 µg/mL | -1.23 ± 0.39
[3], 4 µg/mL | -1.88 ± 0.3
[3], 8 µg/mL | -2.18 ± 0.09
[3], 16 µg/mL | -1.41 ± 0.018
[3], 32 µg/mL | -0.985 ± 0.031
[3], 64 µg/mL | -0.218 ± 0.1
[4], 0.03125 µg/mL | 121.1 ± 0.91
[4], 0.0625 µg/mL | 123 ± 7.8
[4], 0.125 µg/mL | 124 ± 2.2
[4], 0.25 µg/mL | 135.7 ± 0.19
[4], 0.5 µg/mL | 32.9 ± 3
[4], 1 µg/mL | 0.49 ± 0.67
[4], 2 µg/mL | 0.315 ± 0.23
[4], 4 µg/mL | -0.0789 ± 0.22
[4], 8 µg/mL | 0.141 ± 0.14
[4], 16 µg/mL | 0.525 ± 0.16
[4], 32 µg/mL | 0.692 ± 0.61
[4], 64 µg/mL | 2.62 ± 0.34
[5], 0.03125 µg/mL | 117 ± 1.4
[5], 0.0625 µg/mL | 126 ± 9
[5], 0.125 µg/mL | 157 ± 2.8
[5], 0.25 µg/mL | 97.2 ± 56
[5], 0.5 µg/mL | -1.57 ± 4.4
[5], 1 µg/mL | -2.71 ± 4.1
[5], 2 µg/mL | -2.61 ± 4.2
[5], 4 µg/mL | -3.06 ± 4.3
[5], 8 µg/mL | -3.21 ± 4.5
[5], 16 µg/mL | -2.75 ± 4.4
[5], 32 µg/mL | -2.44 ± 4.5
[5], 64 µg/mL | -1.35 ± 4.3
[6], 0.03125 µg/mL | 120 ± 2.9
[6], 0.0625 µg/mL | 122 ± 4.7
[6], 0.125 µg/mL | 134 ± 3.1
[6], 0.25 µg/mL | 135.9 ± 1.1
[6], 0.5 µg/mL | -0.0539 ± 0.68
[6], 1 µg/mL | -0.526 ± 0.071
[6], 2 µg/mL | -0.482 ± 0.14
[6], 4 µg/mL | -1.06 ± 0.57
[6], 8 µg/mL | -1.02 ± 0.14
[6], 16 µg/mL | -0.463 ± 0.32
[6], 32 µg/mL | -0.406 ± 0.17
[6], 64 µg/mL | 1.12 ± 0.22
[7], 0.03125 µg/mL | 111 ± 5
[7], 0.0625 µg/mL | 120 ± 3.8
[7], 0.125 µg/mL | 119 ± 5.5
[7], 0.25 µg/mL | 127 ± 2.6
[7], 0.5 µg/mL | 12.3 ± 0.39
[7], 1 µg/mL | -0.964 ± 0.14
[7], 2 µg/mL | -1.37 ± 0.32
[7], 4 µg/mL | -2.28 ± 0.76
[7], 8 µg/mL | -2.09 ± 0.39
[7], 16 µg/mL | -1.39 ± 0.097
[7], 32 µg/mL | -1.01 ± 0.23
[7], 64 µg/mL | 0.0577 ± 0.021
[8], 0.03125 µg/mL | 113 ± 5.2
[8], 0.0625 µg/mL | 119 ± 2
[8], 0.125 µg/mL | 112 ± 2.3
[8], 0.25 µg/mL | 131.1 ± 0.69
[8], 0.5 µg/mL | 40.7 ± 14
[8], 1 µg/mL | -1.06 ± 1
[8], 2 µg/mL | -0.628 ± 0.29
[8], 4 µg/mL | -1.87 ± 0.87
[8], 8 µg/mL | -1.73 ± 0.27
[8], 16 µg/mL | -1.01 ± 0.2
[8], 32 µg/mL | -0.632 ± 0.27
[8], 64 µg/mL | 5.52 ± 6.6
[9], 0.03125 µg/mL | 119 ± 1.7
[9], 0.0625 µg/mL | 126 ± 4.3
[9], 0.125 µg/mL | 126 ± 2.9
[9], 0.25 µg/mL | 134 ± 3.3
[9], 0.5 µg/mL | 83 ± 26
[9], 1 µg/mL | -0.0562 ± 0.18
[9], 2 µg/mL | -0.494 ± 0.31
[9], 4 µg/mL | -0.786 ± 0.081
[9], 8 µg/mL | -1.07 ± 0.059
[9], 16 µg/mL | 4.25 ± 6.2
[9], 32 µg/mL | -0.644 ± 0.18
[9], 64 µg/mL | 1.03 ± 0.75
[10], 0.03125 µg/mL | 108 ± 18
[10], 0.0625 µg/mL | 124 ± 8.7
[10], 0.125 µg/mL | 115.9 ± 0.5
[10], 0.25 µg/mL | 133.6 ± 0.31
[10], 0.5 µg/mL | 0.381 ± 0.39
[10], 1 µg/mL | 0.128 ± 0.16
[10], 2 µg/mL | -0.404 ± 0.63
[10], 4 µg/mL | -1.33 ± 0.37
[10], 8 µg/mL | -0.883 ± 0.73
[10], 16 µg/mL | -0.762 ± 0.51
[10], 32 µg/mL | -0.229 ± 0.38
[10], 64 µg/mL | 0.868 ± 0.025
[11], 0.03125 µg/mL | 113 ± 5.4
[11], 0.0625 µg/mL | 123 ± 4.5
[11], 0.125 µg/mL | 127 ± 1.8
[11], 0.25 µg/mL | 132 ± 1.6
[11], 0.5 µg/mL | 0.301 ± 0.41
[11], 1 µg/mL | -0.894 ± 0.066
[11], 2 µg/mL | 0.0977 ± 0.97
[11], 4 µg/mL | -1.09 ± 0.88
[11], 8 µg/mL | -1.21 ± 0.91
[11], 16 µg/mL | -0.958 ± 0.27
[11], 32 µg/mL | -0.591 ± 0.72
[11], 64 µg/mL | 0.59 ± 0.21
[12], 0.03125 µg/mL | 113.6 ± 0.34
[12], 0.0625 µg/mL | 122 ± 4.1
[12], 0.125 µg/mL | 130 ± 1.5
[12], 0.25 µg/mL | 138 ± 3.1
[12], 0.5 µg/mL | 41.5 ± 39
[12], 1 µg/mL | -2.42 ± 1.3
[12], 2 µg/mL | -2.33 ± 1.8
[12], 4 µg/mL | -1.79 ± 1.2
[12], 8 µg/mL | -2.68 ± 2.6
[12], 16 µg/mL | -2 ± 2
[12], 32 µg/mL | -1.7 ± 2
[12], 64 µg/mL | -0.489 ± 2.5

± gives the standard deviation of the averaged measurements. M. abscessus ATCC 19977 and its deletion, point and complemented mutants after 5 days of drug at 37 °C plus 24 h of resazurin. Growth in % of untreated wells at the dose given (lower = more inhibition); checkerboards give % inhibition (higher = more inhibition); IC50 from the fitted curve (lower = more potent). No active / inactive call. IC50 values come from the same 384-well curves. Growth is not capped and can exceed 100%. The direction of the checkerboard scale is read from the raw signals. Capreomycin is a mixture.
